From PubChem BioAssay (NCI)
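How tested: cells in 96-well plates exposed to compound for 48 hours at five concentrations. GI50 is the concentration that inhibits growth by half. TGI is the concentration that stops growth completely.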

Tested on: NCI-H322M lung
Assay: DTP human tumour cell line panel, 48 h

SMILES | GI50 [µM] | TGI [µM]
N#Cc1cnc2ccc(-c3cnc(N)nc3)cc2c1N1CCc2cc(F)c(Cl)cc21 | 0.75 | 9.32
Nc1cc(-c2c[nH]c3ccc(F)cc23)nc2cc(-c3c[nH]c4ccc(F)cc34)nn12 | 2.09 | 5.08
O=C(NNc1nc2cc(F)ccc2n2c(CN3CCCC3)ccc12)c1cnccn1 | 0.87 | 17.8
COc1ccc(CC(C)=C(c2ccc(OCCN3CCCC3)cc2)c2ccc(OCCN3CCCC3)cc2)cc1 | 3.59 | 6.77
